Results reported in the supplement of paper PMC12217912.
The list shows a part of the results. Sequences were assembled here from the parent chain. Values near 0.05 are background.

B1: TEV protease; numbered along this chain (parent)
chain: MGESLFKGPRDYNPISSSICHLTNESDGHTTSLYGIGFGPFIITNKHLFRRNNGTLVVQSLHGVFKVKDTTTLQQHLVDGRDMIIIRMPKDFPPFPQKLKFREPQREERICLVTTNFQTKSMSSMVSDTSCTFPSGDGIFWKHWIQTKDGQCGSPLVSTRDGFIVGIHSASNFTNTNNYFTSVPKNFMELLTNQEAQQWVSGWRLNADSVLWGGHKVFMVKPEEPFQPVKEATQL

Variants of: B1
Assay: raw area under fraction-flipped curve 0-4 h after induction (AUC4h, not background-subtracted), DNA-recorder readout of cleavage of the substrate (dimensionless); higher = more cleavage of the substrate by the protease variant
Conditions: temperature: 34 °C; time window: 0-4 h after rhamnose induction
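Further: Bxb1 expression induced with 0.2% (w/v) L-rhamnose at OD600 near 0.5, cultures sampled hourly, flipped fraction per protease–substrate barcode pair counted by paired-end Illumina sequencing.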

| Variant | area with substrate ENGYFQS | area with substrate ENNYFQS | area with substrate ENRYFQS | area with substrate ENEYFQS | area with substrate ENFYFQS | area with substrate ENQYFQS | area with substrate ENSYFQS | area with substrate ENTYFQS | area with substrate ENYYFQS | area with substrate ENWYFQS |
| --- | --- | --- | --- | --- | --- | --- | --- | --- | --- | --- |
| M219Y | 0.0719 | 0.0574 | 0.0555 | – | – | – | – | – | – | – |
| F6M | 0.0653 | – | – | 0.0631 | 0.0554 | 0.0601 | 0.063 | 0.0643 | 0.0461 | – |
| F6Y | 0.0624 | – | – | 0.0691 | – | – | – | – | – | 0.0652 |
| F180W | 0.0596 | 0.0667 | – | 0.0564 | – | 0.0497 | 0.0695 | 0.0641 | 0.0636 | – |
| A207P | – | 0.0638 | – | 0.0619 | 0.0666 | – | 0.0537 | – | 0.0488 | – |
| D149V | – | 0.0727 | 0.0443 | – | 0.0772 | – | 0.08 | 0.0483 | – | – |
| Q74R | – | 0.0533 | 0.0501 | 0.0661 | – | – | 0.0634 | 0.0537 | 0.0613 | – |
| K221V | – | 0.058 | – | 0.0633 | 0.073 | 0.0605 | 0.0593 | 0.0463 | 0.0652 | – |
| T71P | 0.0604 | 0.04 | – | – | – | 0.0483 | 0.0538 | – | – | 0.003 |
| D91Q | 0.0516 | – | 0.0793 | 0.059 | – | – | – | – | – | 0.0509 |
| L211P | 0.0673 | – | – | 0.059 | – | 0.0567 | 0.0622 | – | – | – |
| L211H | – | 0.06 | – | – | 0.0884 | 0.0367 | 0.0538 | – | – | – |

Same assay, conditions: temperature: 34 °C; time window: 0-4 h after rhamnose induction

| Variant | area with substrate ENHYFQS | area with substrate ENKYFQS | area with substrate ENMYFQS | area with substrate ENPYFQS | area with substrate ENVYFQS | area with substrate ENDYFQS | area with substrate ENIYFQS |
| --- | --- | --- | --- | --- | --- | --- | --- |
| F180W | 0.0537 | 0.0192 | 0.068 | 0.0612 | 0.0669 | – | – |
| A207P | 0.0378 | – | 0.0826 | – | – | 0.048 | 0.0911 |
| D149V | – | – | 0.0752 | – | – | – | – |
| Q74R | 0.0599 | – | – | 0.0437 | 0.0741 | – | – |
| K221V | 0.0641 | – | 0.0652 | 0.0649 | 0.0696 | 0.0533 | 0.0955 |
| T71P | 0.0578 | – | – | – | – | – | – |
| D91Q | – | 0.0548 | – | – | 0.063 | – | 0.0967 |
| L211P | – | 0.0542 | – | – | – | – | – |
| L211H | 0.0546 | 0.0621 | – | – | 0.0747 | – | – |
